The full ranking holds about 2,300 sequences; the median of “median log2 fold change of GCK-ALFA target abundance (FLAG IP / Myc IP barcode read proportion)” is about 0.095, and the lowest 2% start at about -0.47. This is one part of the list.
B1: LC3A_28_919 (protein)
chain: MTKEEIIERIEEIADRAIAEGKDAFIEVKIDSSHTVEEAKEIMEKIREEVARLSAAGLKVDIVIDLDDVSQEVLDVVAEEAEEIEEEFPNVSVVIALDEE
B2: LC3A_28_726 (protein)
chain: NPLEESIEKALERAKRLAKEGKSDVIEITVPGDATQEDIERVIEALYEIAEIVKDLERVDIVINVEGGVAQEHIDRLADAADEIEKKYPNVTVIIALDEE
B3: LC3A_free_46_2307 (protein)
chain: VKAEIIIDLSHKDEEVLKKAVEEIVKKAKEIAEKYGLKVEIEVSFSKDEDGEYFAEIKIEVEGEKLEDIEKFVNELIKEIEKIAEKYGVSAVISVEIEKP
B4: LC3A_free_39_2207 (protein)
chain: SEEELEKLIKEVAKAGGIDYEYVREKIKEIQKVAGLSIEEMLELVKEILKAVKAGADAEEILERILEIAKRLKAEGKSSEEILEEMLEEIRDFENLVPLD
B5: LC3A_28_682 (protein)
chain: SRMEESIKAALEAAKAALAAGEPAVIELNVYADITEEELEKLLEKLEEIAELASKVPGSAIVINVEAGLKEEHLNKIMDKAEELEKKYKNVTIIIALEEE
B6: LC3A_free_8_2480 (protein)
chain: SSQKLVDAALKGLDKLEEEVEKKAKELGLSELDILELKLEIGALKAEVISLSDKSKEEIYKATKEGLERIIELAKEINEELAKVVKEKSEEILKELEKLL
B7: LC3A_45_1987 (protein)
chain: MYEAEVDLLVPKELAEEALKVAKEAMEELKKKYGPDLKVDEETLEKTYEESKDEEEVYLRIKIYHPDEDVALDAAVELEDRIHEKLGDKVASIISYKKVP
B8: LC3A_28_681 (protein)
chain: SALEKELEKALAEAKEAAAAGEPTVIVINVPGDATQEEIEKFIKALEEIAEILKDVKGAAIVVDLSKDLSQEHQDKIIDAAEKINEKYPNVTVIIALEEK
B9: LC3A_28_1232 (protein)
chain: MTPEEIAARKVAEAKAQLAAGNKVIEIDISAEEGSPENADALAKALKEIAELANKAGGVSIIVTLDSKTPQENQQKLIDTAEEAEKKYPNVTIIIAIDED
B10: LC3A_28_692 (protein)
chain: SAVDAQIAAARAAAAEAAARGEEATLTVTITADTTEADVDRIMAAIEEIAEEMSKVAKLSIIVDIEAGVDQAHIDRLMDFGDELSEKYPNVSIIFALDEE
B11: LC3A_3_1794 (protein)
chain: MEELIEELLRELREAGKSEETLEAVRRALEALAERGYEEALETFVEGLRELKDAPDEILLWLAEEVLALVEEEDLDEEELKARIEELLRLARNEAEIEEL
B12: LC3A_59_2028 (protein)
chain: TAEIDAFIAALKAAKDDLEAMAEILLEGFTAVKDDPELLKELKEKVVATLVELGLLSEELAKELVEEVEKIVKTEKDREKALKLILEELTVARNENEIIE
B13: LC3A_17_555 (protein)
chain: MEELKKELEELLKELEKLVKELEKYDPEAAKKLKEKLKEAKKALEKGDLKKALKILKEVAEEAAEVFDSLEHIDPELMSILSMEAEGLLIEALSLEEKLE
B14: LC3A_3_1589 (protein)
chain: SEELVEEKLKRLREAGLSEEVLEAARKVLEALAERGFERAMEVLTEKLLELKDVDDEVLLAMLEEILHKIETEDLNEEEIIKVIEEEARVARLEAEIEEL
B15: LC3A_3_1425 (protein)
chain: SEELLEEAKEELEKAGFSEETKEAVLRLIELALEAGEYEGVRELIEELKKAKDVPSEEVLEAAEEALRLIEEEGVSMEEALRYFISEIRVLILDLEIEEL
B16: LC3A_free_8_2447 (protein)
chain: KNEELVTEVTEILDELEEKLEEKAKELGLSRLEILELELDVGEIKIDLISAVDKSIEEIEKVATEGLDDLKKLAAEYSEELKKLVEEAEKKILELIEKAK
B17: LC3A_3_1525 (protein)
chain: SAAIRAEILALLRAAGADEETLADAEALLELLEARGYAEAQRTLLEELRRLADASPETLADFVREVLELAETEDLNEAELSERIREIADTALADAEIEEL
B18: LC3A_132_258 (protein)
chain: SEEKKEEFLEKFKELIDKIVEALQAGQDPSPYLKELDELAEEAAEELSLEELEELVEEAEKYARERFAERLDPNDPEARRTLLIVEMILDSALIESELRA
B19: LC3A_28_778 (protein)
chain: MDIDKEVEKAIEEAKKAKEEGKETVITIKVPNGITQEDVEKVIEGMEKIAEITKDMKSTAIVVDVDSGVPQEHLDKLIDAGEEIEEKYPNVTVIFALDED
B20: LC3A_28_1312 (protein)
chain: SKLKKQFEEAIKEVEAAAAAGEPVVVTIDITAEEAEKELEEILKLLEELAKVASKAPGATIIIDVDEDVKPENLKKIAEKAEELEKKYPNVTVIIAIEDK
B21: LC3A_132_326 (protein)
chain: EEEKLKELEEKINKKLEEMKANIDNKEKVEKLAKEIEKLLEEAEKEISPEEAAELFEKAADKLDEAADAADAAGKEDVALTLDGLAVLAAARSIRAEEKV
B22: LC3A_3_1807 (protein)
chain: MEEKLEELLKKLREAGKSEETIEAARRALELLIERGYYEAAEVLIEGLERLLDAPDELVLDLLEEVLEYLETNDASEEEVKEFIEEQIRLAENEAEIIEL
B23: LC3A_127_195 (protein)
chain: ELRELLERMLEVARRLLEELAKPDWDLERIRELAEELRRLAEEALKLDPRVQPILEDAELLLEEIERMEGLSPAEQEEAREHMSMIASGIEIELLGLLLE
B24: LC3A_free_46_2381 (protein)
chain: YRAEIDIDFGAMSKETAEKMAKEIKEAAEKIAKETGVEIEVEVEIITDEDGETYLRVKITIKGEDKEKVKEAVDKLVKEIDEIAEKANVSYIISIEFIDE
B25: LC3A_147_395 (protein)
chain: VVLEVDIDFITKNAEDEIEEEIKKLVEELKKKGYKVELKIEREKLDEDTTYIHVNITVKAETLEKAQEARDTIIDRIDEIIEKYKDKILGSLISYEIIEE
B26: LC3A_3_1482 (protein)
chain: MEEKLEKAVKALREAGKSEETIEALRRAYNALIEKGYENAAETLIDQMLKYIDLPDEDLLAAAELALELIETSDLDEASLAAKIKQIFDDVAGIEALDEE
B27: LC3A_147_393 (protein)
chain: YKLVIEIDLIVKNAEEEIIKEIEELVEELKKKGYEVELKIEKEKIDENTTYIRITITIKAETKEKAQEAQNYVLDKLDKIEEKYKDKILGSLISSEIIEE
B28: LC3A_17_533 (protein)
chain: SEELRKELERLLKELEEVAKRFIELAPEKAEEVNAAVEKVKKALEAGDLRAAAEELEKAARTIADLIDETEFEDEVEKEVLLMEANGVELEAIGLLLKLE
B29: LC3A_free_46_2308 (protein)
chain: VRAEILIDLLHEDEEVLKKAVEEIVKKIKEIAKKYGLKVKIEVSFSKDEDGSYFAEIKVILEGEDLEKLKEAVDEIIDGIDEIAEKYGVSYIISVEIIEE

Molecular target: MAP1LC3A, Q9H492
Assay: median log2 fold change of GCK-ALFA target abundance (FLAG IP / Myc IP barcode read proportion) (log2 ratio); each designed protein is fused to an ALFA-tag nanobody in HEK293 cells to bring the named protein to FLAG-tagged glucokinase (GCK); Myc marks an untargeted standard; higher = target protein stabilised (more abundant)
Conditions: target protein: 3xFLAG-MCP-GCK-ALFA reporter; HEK293 landing pad (RPLP)
Summary of the method: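 Sequencing of reverse-transcribed, amplified circular RNA barcodes from anti-FLAG and anti-Myc immunoprecipitates provided the readout for an ALFA-nanobody-fused binder library recombined into HEK293 landing-pad cells. Those cells were induced with 2 μg mL^−1 doxycycline, transfected with a plasmid expressing a FLAG-tagged target and a Myc-tagged standard, and lysed after 48 h. Target abundance is the per-binder median log2 ratio of FLAG to Myc barcode read proportions. Only barcodes at a proportion of ≥10^−7 in both replicates and binders with ≥3 barcodes per replicate were kept, with a 10^−6 pseudocount added before the two replicates were pooled.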

Binder | median log2 fold change
B1 | -0.111
B2 | 0.274
B3 | 0.228
B4 | 0.108
B5 | -0.369
B6 | 0.122
B7 | 0.106
B8 | 0.271
B9 | 0.169
B10 | -0.0924
B11 | 0.183
B12 | 0.119
B13 | -0.476
B14 | -0.0121
B15 | 0.123
B16 | 0.0273
B17 | 0.166
B18 | -0.582
B19 | -0.305
B20 | -0.0764
B21 | -0.0983
B22 | 0.000802
B23 | -0.0106
B24 | 0.0299
B25 | -0.383
B26 | 0.244
B27 | 0.233
B28 | 0.24
B29 | 0.0974

Reference: the supplement of paper PMC12632987
